Among all 45,000 compounds or so, about 200 (0.44%) were called active. Roughly 7% stayed inconclusive and do not appear here. Calls follow the shape of the dose curve; as a rule, active = well fitted activation curve with a large enough effect; inconclusive = small, poorly fitted or top-dose-only effect; inactive = no such curve, though single readings can be large or run the other way. This is one part of the list.
Assay: qHTS of TDP-43 Inhibitors: NCGC Sytravon Library Screen; also: 0% is about no effect; nearly all actives have a fitted effect of over 55% in size
Conditions: yeast TDP-43 toxicity rescue, BacTiter-Glo growth, 24 h; series mostly up to 46.1 µM; growth rescue (activation): at the top concentration
Procedure, shortened: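 TDP-43-expressing yeast, pregrown in raffinose, seeded at OD600 0.02 in galactose medium with compound for 24 hr at 30 deg C. Growth read by BacTiter-Glo luminescence, so rescue of toxicity appears as activation.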

Row | Structure (SMILES) | growth rescue (activation)
1 | COc1ccc(-c2cc(C(=O)N3CCCCCC3)no2)cc1 | inactive: 26.8%
2 | O=S(=O)(NCc1ccc(Cl)cc1)NCc1ccccc1F | inactive: 6.32%
3 | Cc1ccc2c(CN3CCN(S(=O)(=O)/C=C/c4ccccc4)CC3)cc(=O)oc2c1 | inactive: 18.1%
4 | Cc1nc2cc(NS(=O)(=O)c3ccc(Br)cc3)ccc2n1C | inactive: -5.4%
5 | CC(=O)c1cc2c(=O)c3cc(C)ccc3oc2nc1C | inactive: -6.33%
6 | NC(=O)c1nsc(C(=O)N(CC(=O)NC2CCCC2)Cc2ccc3c(c2)OCO3)c1N | inactive: -17.7%
7 | CCC(C)NC(=O)c1cc(-c2cccs2)nc2ccccc12 (configuration not stated) | inactive: 4.85%
8 | NCC(O)CN1CCN(Cc2ccccc2)CC1 (configuration not stated) | inactive: -13.9%
9 | COc1ccc(NS(=O)(=O)c2ccc(N3CCOCC3)c(NC(=O)c3ccccc3Br)c2)cc1 | inactive: 21%
10 | O=C(CCCCC(=O)NC1CCCC1)NC1CCCC1 | inactive: 18.7%
11 | C/C(=N\NC(=O)c1ccoc1C)c1ccccc1O | inactive: 6.8%
12 | COc1ccccc1Cc1nnc(NC(=O)C2CCN(C(=O)c3ccco3)CC2)s1 | inactive: -2.21%
13 | Cc1ccc(C(=O)Nc2ccccc2[N+](=O)[O-])cc1S(=O)(=O)N1CCOCC1 | inactive: 22.1%
14 | CCN1/C(=c2/s/c(=C3/C(=O)N(c4ccccc4)N=C3C)n(CC)c2=O)C=Cc2ccccc21 | inactive: 0.579%
15 | CCOC(=O)N1CCN(C(=O)c2oc3ccc(S(=O)(=O)N(CC)CC)cc3c2C)CC1 | inactive: 12.6%
16 | Cc1ccccc1CC1(CO)CCCN(Cc2c(C)nn(C)c2Cl)C1 (configuration not stated) | inactive: -5.16%
17 | C=CCNC(=O)C1CCN(c2cc(C)nc(-c3ccccc3)n2)CC1 | inactive: -6.96%
18 | C[C@H](NC(=O)c1ccccc1Cl)C(=O)Nc1ccccc1F | inactive: 12.5%
19 | COc1ccc(S(=O)(=O)N2CCN(C/C=C/c3ccccc3)CC2)cc1F | inactive: -3.31%
20 | COc1ccccc1NC(=O)c1ccc2c(c1)N(CC(=O)NC(C)(C)C)C(=O)C(C)(C)O2 | inactive: 7.44%
21 | COc1ccc(OC)c(NC(=O)COC(=O)C2CCCCC2)c1 | inactive: 11.6%
22 | CCOc1ncccc1C(=O)N=c1sccn1C | inactive: -23.6%

Row | Structure (SMILES) | growth rescue (activation)
23 | Cc1cc(C)cc(NC(=O)C2CCCN(c3ncccn3)C2)c1 (configuration not stated) | inactive: 26.5%
24 | O=C(O)c1cn(-c2ccc(N3CCCC3)c(F)c2)c2c(F)c(F)c(F)cc2c1=O | inactive: -23.1%
25 | Cc1ccc(C(=O)C2CCN(CC(=O)NC3CCCC3)CC2)cc1 | inactive: 6.38%
26 | CCN(CC)S(=O)(=O)c1ccc(NC(=O)COC(=O)CNS(=O)(=O)/C=C/c2ccccc2)cc1 | inactive: -1.79%
27 | CC(=O)c1c(C)[nH]c(C(=O)OCc2nnc(-c3ccc([N+](=O)[O-])cc3)o2)c1C | inactive: -6.41%
28 | Cc1cc(C)cc(OCC(=O)NNC(=O)CN2C(=O)c3ccccc3C2=O)c1 | inactive: -7.05%
29 | O=C(COc1cc(O)c2c(=O)cc(-c3ccccc3)oc2c1)c1ccccc1 | inactive: 8.58%
30 | Cc1ccccc1C(=O)Nc1ccc(O)cc1C(=O)O | inactive: -15.6%
31 | COc1cccc(NC(=O)Nc2ccccc2C(N)=O)c1 | inactive: -0.807%
32 | CCS(=O)(=O)NCc1cn2c(C)csc2n1 | inactive: -2.96%
33 | Cc1cccc(NC(=O)C2CCN(S(C)(=O)=O)CC2)c1C | inactive: -5.53%
34 | COCCNC(=O)C(=O)NNC(=O)c1ccccc1OC | inactive: -5.77%
35 | O=[N+]([O-])c1ccc(S(=O)(=O)N2CCN(Cc3ccco3)CC2)cc1 | inactive: -7.68%
36 | CCOC(=O)N1CCN(C(=O)c2cc3ccc(OC)cc3[nH]2)CC1 | inactive: 8.04%
37 | COC(=O)c1ccc(OCCN2CCCCCC2)cc1 | inactive: -6.18%
38 | Cc1cc(C)c(C)c(C(=O)C2OC(=O)C(C)(C)C(=O)C2(C)C)c1C (configuration not stated) | inactive: 22.8%
39 | COC(CNC(=O)c1cc(Sc2nnc(C)s2)nc2ccccc12)OC | inactive: -1.71%
40 | COC(=O)CSc1nc(C)c(C(=O)Nc2ccccc2C)c(-c2ccc(Cl)cc2)c1C#N | inactive: 13.4%
41 | O=c1c2ccccc2ncn1-c1ccc([N+](=O)[O-])cc1[N+](=O)[O-] | inactive: -4.29%
42 | COc1ccc(CNC(=O)C2CCN(S(=O)(=O)c3cccc4nonc34)CC2)cc1 | inactive: 1.81%
43 | O=C(COC(=O)c1cc2ccccc2oc1=O)Nc1cccc(S(=O)(=O)N2CCCCCC2)c1 | inactive: -9.32%
44 | Cc1c(Cl)cccc1NC(=S)N1CCCN(Cc2ccc(F)cc2)C1 | inactive: 8.94%

Row | Structure (SMILES) | growth rescue (activation)
45 | O=C(Cn1cc[n+](Cc2ccccc2)c1)c1ccc([N+](=O)[O-])cc1 | inactive: 0.209%
46 | O=C(NCC(=O)N(Cc1ccc(F)cc1)C(C(=O)NCC1CCCO1)c1ccccc1)c1ccco1 (configuration not stated) | inactive: -6.15%
47 | CCC1(C)Cc2c(sc3c2c(=O)n(C)c2nnc(SCCc4ccccc4)n32)CO1 (configuration not stated) | inactive: -37.3%
48 | CCN1CCN(S(=O)(=O)c2ccc(OC)c(NC(=O)c3ccccc3)c2)CC1 | inactive: -2.53%
49 | O=C(c1cc(-c2ccccn2)nc2ccccc12)N1CCN(c2ncccn2)CC1 | inactive: -7.88%
50 | CN(CC(=O)Nc1ccc(S(N)(=O)=O)cc1)Cc1ccccc1F | inactive: 6.82%
51 | Cc1[nH]nc(SCC(=O)N2CCCCCC2)c1[N+](=O)[O-] | inactive: -3.11%
52 | C=CCN(c1ccc(C(=O)Nc2ccc3c(c2)OCO3)cc1)S(C)(=O)=O | inactive: 4.94%
53 | OC(CNCc1ccccc1Cl)COc1ccc(F)cc1 (configuration not stated) | inactive: 4.16%
54 | COC(=O)c1c(N)sc(C(=O)NCCc2ccccc2)c1C | inactive: 3.61%
55 | Cc1ccc(C(=O)N2CCCCC2C(=O)O)cc1S(=O)(=O)N1CCCCC1 (configuration not stated) | inactive: 2.68%
56 | Cc1cccc(N2CCN(Cc3nc(-c4ccc(F)cc4F)oc3C)CC2)n1 | inactive: 1.35%
57 | COc1ccc(CCCNC(=O)C2(C)Cc3c(-c4ccc(NC(C)=O)cc4)ccnc3O2)cc1 (configuration not stated) | inactive: -4.34%
58 | CCOC(=O)Nc1ccc2c(COC(=O)CNS(=O)(=O)c3ccc(NC(C)=O)cc3)cc(=O)oc2c1 | inactive: -2.26%
59 | Oc1ccc(/C=N/N2CCCCC2)c(O)c1O | inactive: 3%
60 | COc1ccccc1N1CCN(C(=O)CSc2nnnn2C2CC2)CC1 | inactive: 6.31%
61 | CCOc1ncccc1C(=O)Nc1cc(S(=O)(=O)N2CCCCC2)ccc1OC | inactive: 14.4%
62 | COc1ccc(NC(=O)CN(C)C(=O)c2ccc3ccccc3c2)cc1 | inactive: 6.12%
63 | O=C(NCc1cccc(F)c1)C1CCN(C(=O)c2sccc2-n2cccc2)CC1 | inactive: -1.76%
64 | COc1ccc(/C=C(\C#N)C(=O)OCC(=O)Nc2c(C)cccc2C)cc1 | inactive: 18.8%
65 | CC(C)COC(=O)/C(C#N)=C/c1cn(Cc2ccccc2)c2ccccc12 | inactive: -15.2%
66 | CC1(C)C(=O)OC(c2cccn2-c2ccc([N+](=O)[O-])cc2)C2(CCCCC2)C1=O (configuration not stated) | inactive: 8.62%

Row | Structure (SMILES) | growth rescue (activation)
67 | COc1cc(SC)ccc1C(=O)NNC(=O)C1COc2ccccc2O1 (configuration not stated) | inactive: -3.13%
68 | COc1ccc(CNc2nc(-c3cccnc3)nn2S(C)(=O)=O)cc1 | inactive: 8.65%
69 | O=C(O)c1ccccc1SCc1cn2cc(Br)ccc2n1 | inactive: -23.1%
70 | CN1/C(=C\C(=O)c2ccccc2Cl)c2ccccc2CC1(C)C | inactive: -5.99%
71 | COc1ccccc1C(=O)Nc1cc2c(cc1C(=O)O)OCCCO2 | inactive: 3.83%
72 | Cc1cccc(C)c1NC(=O)CNC(=O)Cc1ccc(Br)cc1 | inactive: 9.74%
73 | COc1ccc(OC)c(N(CC(=O)N2CCCC2)S(=O)(=O)c2ccccc2)c1 | inactive: 10.2%
74 | Cc1cc(=O)[nH]c(SCC(=O)Nc2ccccc2C)n1 | inactive: -2.54%
75 | O=C(CC1SC(=Nc2ccc(OC(F)F)cc2)N(CCN2CCOCC2)C1=O)Nc1ccc(F)cc1F (configuration not stated) | inactive: 5.37%
76 | CCC(=O)N1CCCC1(C)C(=O)Nc1ccc(C)c(C)c1 (configuration not stated) | inactive: 2.93%
77 | O=C(O)CNS(=O)(=O)c1c(Cl)cccc1Cl | inactive: 12.3%
78 | CC(C)N1C(=S)SC2CS(=O)(=O)C=C21 (configuration not stated) | inactive: -12%
79 | O=C(N/N=C/c1ccc(F)cc1)c1c(O)c2ccccc2[nH]c1=O | inactive: -46.5%
80 | CCSC(=S)Nc1c(C)n(C)n(-c2ccccc2)c1=O | inactive: -1.97%
81 | Cn1c(CN2CCOCC2)nnc1SCC(=O)Nc1cc(Cl)ccc1Cl | inactive: 0.0794%
82 | COc1ccc(S(=O)(=O)NCc2ccco2)cc1NC(=O)c1ccccc1 | inactive: 7.96%
83 | CCn1nnnc1SCC(=O)N1N=C(c2cccs2)CC1c1cccs1 (configuration not stated) | inactive: 20%
84 | CCOc1ccc2c(c1)c1nnc(SCC(=O)NC3CC3)nc1n2C | inactive: 5.11%
85 | Cc1cc(/C=C(\C#N)C(=O)NCc2ccco2)c(C)n1-c1ccc(C(=O)O)cc1 | inactive: 13.9%
86 | COc1ccc(NC(=O)CN2CCC(C(=O)c3ccc(C)cc3)CC2)c(OC)c1 | inactive: 11.7%
87 | CCOC(=O)Cc1csc(NC(=O)c2sc3nc4cc(C)ccc4cc3c2N)n1 | inactive: -0.798%
88 | CCOC(=O)c1ccc(NC(=O)[C@@H](NC(N)=O)C(C)C)cc1 | inactive: -0.738%

Row | Structure (SMILES) | growth rescue (activation)
89 | CCCCN(C)C1CCN(C(=S)Nc2cccc(OC)c2)CC1 | inactive: -3.55%
90 | O=C(/C=C/c1ccco1)NC(=S)Nc1nc(-c2ccc(Cl)cc2)cs1 | inactive: -3.15%
91 | Cc1cc(Cl)ccc1C(O)c1ncc(-c2ccccc2Cl)[nH]1 (configuration not stated) | inactive: -1.04%
92 | CCOc1ccc(C(C)=O)cc1COC(=O)C1=COCCO1 | inactive: 10.1%
93 | CC(C)(C)NC(=O)CN(C(=O)c1csnn1)c1cccc2c1CCCC2 | inactive: 14.7%
94 | O=C(C(c1ccccc1)c1ccccc1)N1CCN(Cc2ccncc2)CC1 | inactive: -0.422%
95 | COc1cccc(/C=C/C(=O)OCC(=O)NCC2CCCO2)c1OC (configuration not stated) | inactive: 22.6%
96 | CCC(Sc1ncccc1C(=O)Oc1cccc([N+](=O)[O-])c1)C(=O)Nc1ccccc1OC (configuration not stated) | inactive: -6.63%
97 | CN(C)c1ccc(C(=O)OCc2cc(=O)n3ccsc3n2)cc1 | inactive: 22.8%
98 | O=C(c1ccc(COCC(F)(F)F)o1)N1CCCC1 | inactive: 6.15%
99 | CCN(C(=O)CN1CCC(C)CC1)c1c(N)n(Cc2ccccc2)c(=O)[nH]c1=O | inactive: 16.4%
100 | N#Cc1cc(C(=O)c2cc(Br)ccc2O)cn(C2CC2)c1=O | inactive: 15.4%
101 | CCN(CC)C(=O)CN(c1cc(Cl)ccc1OC)S(=O)(=O)c1ccc(C)c([N+](=O)[O-])c1 | inactive: 12.5%
102 | CC(C)COc1ccc(C(=O)Nc2ccc(S(=O)(=O)Nc3ncccn3)cc2)cc1 | inactive: 8.63%
103 | COc1ccc(-n2cc(CNCCc3ncc(C)[nH]3)c(-c3ccccc3Cl)n2)cc1 | inactive: 1.95%
104 | CCC(CC)NC(=O)c1oc2ccccc2c1COc1ccccc1 | inactive: 1.35%
105 | O=C(NCC1CCCN(C(=O)CN2CCCCC2)C1)c1ccccc1Cl (configuration not stated) | inactive: -9.42%
106 | Nn1cnc2scc(-c3cccs3)c2c1=O | inactive: 4.62%
107 | C/C(CC(=O)Nc1ccc(Cl)c(C(F)(F)F)c1)=N\NC(N)=S | inactive: 25.4%

Reference: PubChem BioAssay AID1347073 (National Center for Advancing Translational Sciences (NCATS), 2019)
